According to the supplement of paper PMC12645437, “Orthogonal IMiD-Degron Pairs Induce Selective Protein Degradation in Cells” (ACS Chemical Biology, 2025):
The list shows a part of the results.

B1: Q9UKT9 (peptide)
chain: FICNQCGHQFTQKGNLLRHIKL
B2: Q9UKT9 (peptide)
chain: FNCEICGRPFTQKGNLLRHIKL
B3: Q9UKT9 (peptide)
chain: FRCEICGARFTQKGNLLRHIKL
B4: Q9UKT9 (peptide)
chain: FMCEICGREFTQKGNLLRHIKL
B5: Q9UKT9 (peptide)
chain: FCCNVCGAAFTQKGNLLRHIKL
B6: Q9UKT9 (peptide)
chain: FMCEVCGAQFTQKGNLLRHIKL
B7: Q9UKT9 (peptide)
chain: FNCEICGAQFTQKGNLLRHIKL
B8: Q9UKT9 (peptide)
chain: FTCPICGHFFTQKGNLLRHIKL
B9: Q9UKT9 (peptide)
chain: FTCNICGASFTQKGNLLRHIKL
B10: Q9UKT9 (peptide)
chain: FYCEQCGAVFTQKGNLLRHIKL
B11: Q9UKT9 (peptide)
chain: FHCSVCGHWFTQKGNLLRHIKL
B12: Q9UKT9 (peptide)
chain: FACDVCGAHFTQKGNLLRHIKL
B13: Q9UKT9 (peptide)
chain: FWCNQCGRTFTQKGNLLRHIKL
B14: Q9UKT9 (peptide)
chain: FDCEICGRPFTQKGNLLRHIKL
B15: Q9UKT9 (peptide)
chain: FHCPVCGAIFTQKGNLLRHIKL
B16: Q9UKT9 (peptide)
chain: FGCDVCGAIFTQKGNLLRHIKL
B17: Q9UKT9 (peptide)
chain: FMCEQCGALFTQKGNLLRHIKL
B18: Q9UKT9 (peptide)
chain: FRCPICGACFTQKGNLLRHIKL
B19: Q9UKT9 (peptide)
chain: FKCEICGHSFTQKGNLLRHIKL
B20: Q9UKT9 (peptide)
chain: FRCNQCGHMFTQKGNLLRHIKL
B21: Q9UKT9 (peptide)
chain: FECNQCGRVFTQKGNLLRHIKL
B22: Q9UKT9 (peptide)
chain: FYCEICGHWFTQKGNLLRHIKL
B23: Q9UKT9 (peptide)
chain: FVCPQCGAYFTQKGNLLRHIKL
B24: Q9UKT9 (peptide)
chain: FMCDICGARFTQKGNLLRHIKL
B25: Q9UKT9 (peptide)
chain: FQCNICGAWFTQKGNLLRHIKL
B26: Q9UKT9 (peptide)
chain: FFCDQCGAIFTQKGNLLRHIKL
B27: Q9UKT9 (peptide)
chain: FWCPICGAGFTQKGNLLRHIKL
B28: Q9UKT9 (peptide)
chain: FTCNVCGAPFTQKGNLLRHIKL
B29: Q9UKT9 (peptide)
chain: FKCDVCGAHFTQKGNLLRHIKL
B30: Q9UKT9 (peptide)
chain: LMCPICGFMCTQKGNLLRHIKL
B31: Q9UKT9 (peptide)
chain: FTCPICGHMFTQKGNLLRHIKL
B32: Q9UKT9 (peptide)
chain: FLCPICGHWFTQKGNLLRHIKL
B33: Q9UKT9 (peptide)
chain: FLCNICGASFTQKGNLLRHIKL
B34: Q9UKT9 (peptide)
chain: FVCEQCGASFTQKGNLLRHIKL
B35: Q9UKT9 (peptide)
chain: FKCSVCGHGFTQKGNLLRHIKL
B36: Q9UKT9 (peptide)
chain: FKCDVCGATFTQKGNLLRHIKL
B37: Q9UKT9 (peptide)
chain: FYCPQCGAEFTQKGNLLRHIKL
B38: Q9UKT9 (peptide)
chain: FQCNQCGANFTQKGNLLRHIKL
B39: Q9UKT9 (peptide)
chain: FDCDVCGAWFTQKGNLLRHIKL
B40: Q9UKT9 (peptide)
chain: FSCDQCGARFTQKGNLLRHIKL
B41: Q9UKT9 (peptide)
chain: FMCNICGAMFTQKGNLLRHIKL
B42: Q9UKT9 (peptide)
chain: FSCNVCGAVFTQKGNLLRHIKL
B43: Q9UKT9 (peptide)
chain: FLCPICGRSFTQKGNLLRHIKL
B44: Q9UKT9 (peptide)
chain: FVCPICGAGFTQKGNLLRHIKL
B45: Q9UKT9 (peptide)
chain: FMCNICGAAFTQKGNLLRHIKL
B46: Q9UKT9 (peptide)
chain: LECPICGFMCTQKGNLLRHIKL
B47: Q9UKT9 (peptide)
chain: FKCEICGHFFTQKGNLLRHIKL
B48: Q9UKT9 (peptide)
chain: LMCNQCGFWCTQKGNLLRHIKL
B49: Q9UKT9 (peptide)
chain: FDCNQCGALFTQKGNLLRHIKL
B50: Q9UKT9 (peptide)
chain: FMCEICGAIFTQKGNLLRHIKL

Molecular target: no compound (DMSO)
Test: log2 fold change of degron read counts, EGFP-low vs EGFP+ sorted cells; higher = lower degron-EGFP level without compound (poor expression or instability)
Settings: compound: DMSO control; 18 h
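Also: jurkat cells carrying a lentiviral library of mutant zinc finger degrons fused to EGFP plus mCherry, mCherry+ cells FACS sorted, degron abundance counted by next-generation sequencing.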

| Sequence | log2 fold change of degron read counts |
| --- | --- |
| B1 | -2.14 |
| B2 | -0.866 |
| B3 | -0.845 |
| B4 | -3.52 |
| B5 | -1.39 |
| B6 | -1.74 |
| B7 | -1.66 |
| B8 | 0.321 |
| B9 | -1.13 |
| B10 | -1.36 |
| B11 | 0.685 |
| B12 | -1.09 |
| B13 | 0.985 |
| B14 | -0.596 |
| B15 | -0.381 |
| B16 | 0.0708 |
| B17 | -0.995 |
| B18 | -0.277 |
| B19 | -2.43 |
| B20 | -0.0929 |
| B21 | -1.31 |
| B22 | 0.275 |
| B23 | -0.423 |
| B24 | -0.691 |
| B25 | 0.064 |

| Sequence | log2 fold change of degron read counts |
| --- | --- |
| B26 | -0.124 |
| B27 | 1.59 |
| B28 | 0.265 |
| B29 | -1.06 |
| B30 | 1.13 |
| B31 | 0.421 |
| B32 | 0.237 |
| B33 | -0.626 |
| B34 | -2.34 |
| B35 | -0.539 |
| B36 | -1.42 |
| B37 | -0.818 |
| B38 | -0.755 |
| B39 | 0.377 |
| B40 | -0.829 |
| B41 | -0.278 |
| B42 | -1.26 |
| B43 | -0.317 |
| B44 | -0.617 |
| B45 | -0.557 |
| B46 | 0.37 |
| B47 | -0.477 |
| B48 | 1.7 |
| B49 | 0.236 |
| B50 | -0.929 |
